According to PMC4336329 (PLoS ONE, 2015):
Among all 310,000 compounds or so, about 2,200 (0.71%) showed an effect of 50% or more. Effects have a minus sign here. Some of the results follow.

Biological target: human ether-à-go-go-related gene (hERG) potassium channel (human, UniProt Q12809)
Assay: primary screen, population patch clamp on CHO cells stably expressing hERG

human ether-à-go-go-related gene (hERG) potassium channel, sequence (Q12809 whole entry, looked up): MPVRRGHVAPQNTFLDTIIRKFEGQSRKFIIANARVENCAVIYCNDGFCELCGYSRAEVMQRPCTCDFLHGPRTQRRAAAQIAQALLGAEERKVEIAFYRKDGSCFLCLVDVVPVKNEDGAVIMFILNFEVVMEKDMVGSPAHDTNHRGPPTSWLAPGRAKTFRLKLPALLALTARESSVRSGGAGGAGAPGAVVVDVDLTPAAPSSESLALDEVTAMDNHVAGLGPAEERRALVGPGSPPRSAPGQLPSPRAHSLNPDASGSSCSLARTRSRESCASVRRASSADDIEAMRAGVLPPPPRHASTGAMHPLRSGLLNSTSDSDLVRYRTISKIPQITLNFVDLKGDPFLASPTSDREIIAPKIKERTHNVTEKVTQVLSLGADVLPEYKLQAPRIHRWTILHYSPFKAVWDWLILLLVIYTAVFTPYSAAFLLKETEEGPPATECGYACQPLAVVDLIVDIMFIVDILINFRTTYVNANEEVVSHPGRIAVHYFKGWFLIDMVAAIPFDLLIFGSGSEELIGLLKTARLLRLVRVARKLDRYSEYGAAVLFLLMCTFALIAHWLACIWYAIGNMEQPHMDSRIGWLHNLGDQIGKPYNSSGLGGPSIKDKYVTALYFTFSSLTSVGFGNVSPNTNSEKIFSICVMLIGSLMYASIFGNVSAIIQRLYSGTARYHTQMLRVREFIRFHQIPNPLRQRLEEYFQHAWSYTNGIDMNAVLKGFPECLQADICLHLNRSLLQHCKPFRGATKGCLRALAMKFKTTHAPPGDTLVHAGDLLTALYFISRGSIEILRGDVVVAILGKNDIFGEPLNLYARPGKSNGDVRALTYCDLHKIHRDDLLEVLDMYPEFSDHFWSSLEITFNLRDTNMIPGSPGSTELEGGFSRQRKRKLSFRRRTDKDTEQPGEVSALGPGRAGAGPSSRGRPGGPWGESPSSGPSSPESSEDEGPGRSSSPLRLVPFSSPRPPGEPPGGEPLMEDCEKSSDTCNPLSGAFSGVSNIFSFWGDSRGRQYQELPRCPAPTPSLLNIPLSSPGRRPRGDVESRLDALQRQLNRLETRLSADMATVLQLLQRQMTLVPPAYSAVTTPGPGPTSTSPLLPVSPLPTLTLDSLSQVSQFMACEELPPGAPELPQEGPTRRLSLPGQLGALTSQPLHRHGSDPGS

Structure (SMILES) | hERG current change (%, negative = inhibition) at 1uM [%]
C=C1CCC[C@]2(C)C[C@H]3OC(=O)C(CNCC(C)C)[C@H]3CC12 (stereo partly drawn) | 0.0946
N#Cc1cnc(Nc2nc3ccccc3o2)nc1-c1ccccc1 | 9.81
COc1cccc(CNC(=O)CCC(=O)N2C[C@H]3C[C@H](C2)c2cccc(=O)n2C3)c1OC | 13.4
COc1ccc(NC(=O)c2ccc(-c3ccccc3Cl)o2)cc1 | -0.299
Clc1ccc(-c2nnc3n2-c2ccccc2SC3)cc1 | 8.63
Cc1cc(C)n(-c2ccc(C(=O)Nc3ccc(C)c(S(=O)(=O)N4CCOCC4)c3)cc2)n1 | 10.5
CCOC(=O)c1cnc2nc(NCc3ccc(OC)c(OC)c3)[nH]n2c1=O | 5.88
COc1ccccc1NC(=O)C1=C(C)NC(SCC(=O)Nc2ccc(C(=O)O)cc2)=C(C#N)C1c1cccs1 (stereo not drawn) | 16.4
Cc1oc(-c2ccccc2Cl)nc1CN(Cc1ccccn1)C[C@@H]1CCC(=O)N1 | 3.6
Cc1ccc(S(=O)(=O)/N=C(\N)Nc2nc(C)c3cc(C)ccc3n2)cc1 | 0.79
COc1ccc(Oc2c(C(F)(F)F)oc3cc(OCC(=O)O)ccc3c2=O)cc1 | 10.2
CCn1c(N)nc2c1c(=O)n(C)c(=O)n2C | 12.8
CSc1nsc(SC)c1C(=O)OCC(F)(F)F | 14.4
O=C(O)C1CC=CCC1C(=O)Nc1ccccc1C(=O)N1CCN(c2ccc(Cl)cc2)CC1 (stereo not drawn) | 8.6
COc1ccc(NC(=O)C2CC(c3cc(OC)c(OC)c(OC)c3)=NO2)cc1OC (stereo not drawn) | -0.629
COc1ccc(CCNC(=O)c2cc(S(=O)(=O)N3CCOCC3)ccc2N2CCCC2)cc1OC | 12.3
O=C(O)c1ccccc1C(=O)NCCc1c(C(=O)O)[nH]c2ccc(F)cc12 | 0.125
CN(Cc1ccccc1)C(=O)COC(=O)CCN1C(=O)C2CC=CCC2C1=O (stereo not drawn) | 4.12
Cc1ccc(N(Cc2cc3ccc(C)cc3[nH]c2=O)S(=O)(=O)c2ccccc2)cc1 | 9.61
CCOC(=O)c1cnc(SCc2cccc(C)c2)nc1N | -0.141
O=C(c1ccc(F)cc1F)N1CCC(N2CCC(C(=O)N3CCOCC3)CC2)CC1 | 9.46
CCCOc1ccc(NC(=O)C2OC3OC(C)(C)OC3C3OC(C)(C)OC23)cc1 (stereo not drawn) | 15.5

Structure (SMILES) | hERG current change (%, negative = inhibition) at 1uM [%]
CC1Cc2ccccc2N1C(=O)C1CCCN1S(=O)(=O)c1ccc(Cl)cc1 (stereo not drawn) | 12.4
CCOC(=O)C1CCN(C(=O)CNC(=O)c2nn(-c3ccc(OC)c(OC)c3)c(=O)c3ccccc23)CC1 | 11.3
CN(C)c1ccc(C(=O)NCc2ccc3c(c2)CCO3)cc1 | 5.08
CCOc1ccc(-c2c(C(=O)N/N=C/c3ccc(OC)cc3)nnn2-c2nonc2N)cc1 | 8.91
CCOP(=S)(OCC)Oc1cc(C)oc(=O)c1 | 11.8
O=C(NCC1CCCO1)c1ccc2c(c1)C(=O)N(C1CCCCC1)C2=O (stereo not drawn) | 2.04
O=C(O)c1ccc(N/N=C/c2ccnc3ccccc23)cc1 | 12.7
O=C(CN1C(=O)NC(Cc2ccccc2)C1=O)Nc1ccc(F)c(Cl)c1 (stereo not drawn) | 14.9
CCNC(=O)CN(CCc1ccccc1)S(=O)(=O)c1ccc(OC)cc1 | -2.26
Cc1ccc(NS(=O)(=O)c2c(C)[nH]c(C)c2C(=O)N2CCCCC2)cc1F | 14.9
CCc1cccc(C)c1NC(=O)COn1nnc2ccc(C(F)(F)F)cc21 | 16.6
Cc1cccc(NC(=O)CSc2nnc([C@H](C)NC(=O)OC(C)(C)C)o2)c1C | 7.77
CCn1ncc([C@@H]2C[C@H]3CN(Cc4cccc(Cl)c4)C(=O)[C@]34CCCN24)c1C | 8.95
Cn1nc(C(=O)Nc2ccc(S(=O)(=O)NCc3ccco3)cc2)c2ccccc2c1=O | 7.52
CN(C)S(=O)(=O)c1ccc(C(=O)OCC2CCCO2)cc1 (stereo not drawn) | 15.5
CCCCNC(=O)CCSc1ccc(C)cc1 | 13.2
COc1cccc(NC2c3ccccc3C(=O)N2Cc2ccccc2Cl)c1 (stereo not drawn) | 8.81
O=C1C(=O)N(CCCc2ccccc2)c2ccccc21 | 11.5
COc1cc(C(=O)NCC(=O)OCC(=O)N2CCc3ccccc32)cc(OC)c1OC | 7.99
CC(NC(=O)C1CCN(S(=O)(=O)c2cccc3cccnc23)CC1)c1ccccc1 (stereo not drawn) | 20.7
CCOc1ccc(OCCn2c(SCC(=O)O)nc3ccccc32)cc1 | 10.6
Cc1ccc(Nc2nc(C(=O)N3CCC(C(=O)NCCN4CCOCC4)CC3)cs2)cc1 | 6.16

Structure (SMILES) | hERG current change (%, negative = inhibition) at 1uM [%]
OCc1nc2ccccc2n1Cc1ccc(Cl)cc1 | 14.8
CC(=O)c1ccc(N(CC(=O)NC2CCCCC2)C(=O)c2csnn2)cc1 | 11.1
Cc1nn(-c2ccccc2)c(N)c1-c1ccccc1 | 14.3
COCCn1c(SCC(=O)Nc2ccc3c(c2)CCC3)nc2ccccc2c1=O | 10.4
N#Cc1cc(Oc2ccccc2)c(-n2nnc3ccccc32)cc1C#N | 7.75
O=C(COC(=O)c1cnccn1)c1ccc(Cl)cc1 | 25
CN(C)c1ccc(/C=N/NC(=O)c2nnn(-c3nonc3N)c2CN2CCCCCC2)cc1 | 12.8
Cc1ccc(N=C2NC(=O)CC(C(=O)Nc3ccc4c(c3)OCO4)S2)cc1 (stereo not drawn) | 18.9
CCOc1ccc(CC(C(N)=O)C(N)=O)cc1 | -15.8
O=C(c1ccc(Br)o1)N1CCN(c2ccc3nnc(-c4ccccc4)n3n2)CC1 | -28.7
CCC(=O)Nn1cnc2c(c1=O)C1(CCCCC1)Cc1ccccc1-2 | 8.33
CC(C)OCCCNc1ncnc2c1[nH]c1ccc(F)cc12 | 9.01
COc1cc(NC(=O)c2cccs2)ccc1NC(=O)c1ccco1 | 18.5
CCOC(=O)C1=C(N)N2C(=O)C(C)SC2=C(C(=O)OCC)C1c1ccccc1 (stereo not drawn) | 9.84
COc1ccc(NC(=O)CN(C)C(C)C(=O)NC(=O)NC2CCCCC2)cc1 (stereo not drawn) | -2.47
CCOc1ccc(C(=O)OCC(=O)NC2CCCC2)cc1OCC | 11.8
CCn1c(SCc2cccnc2)nnc1-c1c[nH]c2ccccc12 | -5.12
CCCn1nc(NC(=O)CC(C)C)c2cc3ccccc3nc21 | 11.3
CCC(NC(=O)Nn1cnnc1)(C(F)(F)F)C(F)(F)F | 12.3
CC1CCC2(CC1)NC(=O)N(NC(=O)c1cccs1)C2=O (stereo not drawn) | 7.75
NC(=O)/C=C\C(=O)Nc1cccc(C(F)(F)F)c1 | 1.44
O=C(NCc1ccco1)C(c1ccc(F)cc1)N(C(=O)Cc1cccs1)c1cccnc1 (stereo not drawn) | 14.4

Structure (SMILES) | hERG current change (%, negative = inhibition) at 1uM [%]
COc1cc(/C=N/NC(=O)c2cc(C)n(-c3ccc(F)cc3)c2C)cc(OC)c1O | -1.94
Cc1ccc(C(=O)CSc2nnc(COc3ccccc3)o2)cc1 | 13.4
Cl.Cn1c(=O)c2c(nc(N3CCOCC3)n2CCNC2=NCCC2)n(C)c1=O | 11
O=C(c1cccc(Br)c1)N1CCN(C(=O)c2cccc(Br)c2)CC1 | -3.78
C=CCc1cccc(/C=N/n2cnnc2)c1O | 0.938
CCN(CC)/C(=N/S(=O)(=O)c1ccc(C)cc1)c1ccccc1 | 5.95
C=CCC1NS(=O)(=O)OC(COC)C1C (stereo not drawn) | 19
Cc1nc2c(-c3ccc(F)cc3)c(C)nn2c(C)c1CCC(=O)Nc1ccccc1 | 11.2
Cc1ccc(CNC(=O)CSc2c3c(nc4cc(Cl)ccc24)CCCC3)o1 | 4.2
O=C(COc1ccc2ccccc2c1)N1CCN(C2CCN(Cc3ccccc3)CC2)CC1 | -69.6
CC(C)NC(=O)NC(=O)COC(=O)C1CCCN1C(=O)c1cccs1 (stereo not drawn) | 8.04
CCOc1ccc(NC(=O)c2ccc(NS(=O)(=O)c3cccs3)cc2)cc1 | 12.4
Cc1[nH]n(-c2ccccc2)c(=O)c1C(C[N+](=O)[O-])c1ccc(Br)cc1 (stereo not drawn) | 2.06
C/C(=N\NC(=O)CCC(=O)NCc1ccccc1)c1ccco1 | 14.5
CC(C)N(C(=O)COC(=O)[C@@H]1CC(O)CN1S(=O)(=O)c1ccc(C(C)(C)C)cc1)C(C)C (stereo partly drawn) | 14.7
CC(C)N1CCN(CC#Cc2ccccc2)CC1CCO (stereo not drawn) | 5.43
Cn1nc(C(F)(F)F)c2cc(C(=O)Nc3ccc(F)cc3)sc21 | 5.59
COc1ccc(C(=O)N/N=C/c2ccccn2)cc1OC | 4.54
Cc1ccc(NC(=S)N(CCCN2CCC(C)CC2)Cc2ccco2)cc1 | -28.8
CCOc1ccccc1-c1cc(C(=O)N/N=C(\C)c2cccnc2)c2ccccc2n1 | 8.11
COc1ccc(CN2CC(C(=O)NCCN3CCN(c4ccccc4F)CC3)CC2=O)cc1 (stereo not drawn) | 4.97
